Drawing on PubChem BioAssay AID1347073 (National Center for Advancing Translational Sciences (NCATS), 2019), this text covers growth rescue (activation) for 95 molecules.

Structures are written as SMILES. The campaign covered roughly 45,000 compounds. About 200 (0.44%) were called active. Inconclusive results (about 7%) are left out. Calls follow the shape of the dose curve; as a rule, active = well fitted activation curve with a large enough effect; inconclusive = small, poorly fitted or top-dose-only effect; inactive = no such curve, though single readings can be large or run the other way. This is one part of the list.

The assay in a line: qHTS of TDP-43 Inhibitors: NCGC Sytravon Library Screen. Also: 0% is about no effect; nearly all actives have a fitted effect of over 55% in size. Particulars: yeast TDP-43 toxicity rescue, BacTiter-Glo growth, 24 h; at 46.1 µM (top of the series). In a few lines: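 TDP-43-expressing yeast, pregrown in raffinose, seeded at OD600 0.02 in galactose medium with compound for 24 hr at 30 deg C. Growth read by BacTiter-Glo luminescence, so rescue of toxicity appears as activation.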
(In general: Quantitative high-throughput screening tests each substance at several concentrations.)
In the case of `COc1ccc(-n2nc(C(=O)NCC(=O)N3CCC4(CC3)OCCO4)c3ccccc3c2=O)c(OC)c1`, the growth rescue (activation) is inactive: 1.08%.
For `O=C(c1ccccc1)c1ccc(N=Nc2c(O)[nH]c(=O)[nH]c2=O)cc1` the value was inactive: -3.8%; for `COc1ccc(C(CNC(=O)CCc2ccsc2)N(C)C)cc1` (stereo not given), inactive: 2.6%.
As for `O=C(c1ccc2c(c1)OCO2)C1CCCN(CC2CCCCC2)C1` (stereo not given), the figure is inactive: -0.198%.
Consider `CCc1ccc(-n2c(O)c(/C=N/NC(=O)c3ccncc3)c(=O)[nH]c2=O)cc1`, for which the growth rescue (activation) was inactive: 22.5%.
Turning to `Cc1cc(Cl)ccc1C(=O)C1CCCN(C2CCSCC2)C1` (stereo not given), the growth rescue (activation) is inactive: 4.67%.
Turning to `CC(C)OCCCNC(=O)c1c(N)n(Cc2cccs2)c2nc3ccccc3nc12`, the growth rescue (activation) is inactive: -9.14%.
Take `COc1ccccc1N1C(=O)NC(=O)/C(=C\c2cnn(-c3ccccc3)c2)C1=O`: the growth rescue (activation) was inactive: -10.3%.
Consider `COc1cccc(-n2c(/C=C/c3ccc(O)c(O)c3)nc3ccccc3c2=O)c1`, for which the growth rescue (activation) was inactive: 12.3%.
Turning to `Cc1ccc2c(c1)C1CN(C)CCC1N2C(=O)/C=C/c1ccc2c(c1)OCO2` (stereo not given), the growth rescue (activation) is inactive: 3.47%.
Take `CCNc1cc(N2CCN(C)CC2)ccc1[N+](=O)[O-]`: the growth rescue (activation) is inactive: -4.52%.
For `COc1ccc(CCn2c(O)c(/C=N/NC(=O)c3ccncc3)c(=O)[nH]c2=O)cc1OC`, the growth rescue (activation) was inactive: -7.94%.
Take `CN1CCN(C(=O)COc2ccc3ccccc3c2)CC1`: the growth rescue (activation) is inactive: -4.18%.
In the case of `CC(=O)N1CCN(CCN=Cc2c(O)n(-c3ccc(C)cc3)c(=S)[nH]c2=O)CC1`, the growth rescue (activation) is inactive: -7.34%.
On to `CCc1nc2ccccc2c(=O)n1-c1ccccc1[N+](=O)[O-]`, for which the growth rescue (activation) was inactive: 22.1%.
As for `CSc1ccc(C(=O)C2CCCN(C)C2)cc1` (stereo not given), the figure is inactive: 10.5%; as for `NNc1n[nH]c(=S)n1N`, inactive: 10.2%; as for `Cc1nc2ccc(Br)cc2c(=O)n1-c1ccc([N+](=O)[O-])c(C(F)(F)F)c1`, inactive: -3.67%.
`COC(=O)C1=C(N)Oc2cc(C)oc(=O)c2C12C(=O)Nc1ccccc12` (stereo not given): the growth rescue (activation) is inactive: -1.46%.
With `O=C(O)C1C2CCC(O2)C1C(=O)Nc1ccc(Cl)cc1` (stereo not given), the growth rescue (activation) was inactive: -3.81%.
On to `C=CCN1C(=O)NC(=O)/C(=C/c2cc3c4c(c2)CCCN4CCC3)C1=O`, for which the growth rescue (activation) is inactive: 2.98%.
Regarding `COCCN1C(=O)NC(=O)/C(=C\c2ccc(Br)cc2)C1=O`, the growth rescue (activation) is inactive: 1.17%.
For the molecule `NC(N)=N/N=C/c1ccc(N2CCOCC2)cc1`, the growth rescue (activation) is inactive: 19%.
In the case of `OC(CN1CC=C(c2ccccc2)CC1)c1ccccc1` (stereo not given), the growth rescue (activation) was inactive: 9.85%.
For the molecule `C[n+]1c(-c2ccccc2)cc(-c2ccc(O)cc2)cc1-c1ccccc1`, the growth rescue (activation) was inactive: -1.36%.
On to `CC(=NCC1CCCO1)c1c(O)n(-c2ccccc2C)c(=O)[nH]c1=O` (stereo not given), for which the growth rescue (activation) was inactive: -14.6%.
As for `COc1cccc(CC(=O)N2CCN(Cc3cccc(Cl)c3)CC2)c1`, the figure is inactive: 2.39%; as for `CC1CCCCN1Cc1cccnc1` (stereo not given), inactive: -19.7%.
As to `CC[N+](CC)(CC#CCO)CC#Cc1ccccc1`, the growth rescue (activation) is inactive: 13.9%.
Turning to `COc1ccc(CCn2c(O)c(/C=N/N3CCCCC3)c(=O)[nH]c2=O)cc1OC`, the growth rescue (activation) is inactive: 4.58%.
For the molecule `Cc1cccc(-n2c(-c3ccccc3)nc3ccccc3c2=O)n1`, the growth rescue (activation) was inactive: 5.45%.
As for `COc1cc2c(cc1OC)C(c1c(O)n(CCc3ccccc3)c(=S)[nH]c1=O)NCC2` (stereo not given), the figure is inactive: -7.95%; as for `CC(CCc1ccccc1)NCCC#N` (stereo not given), inactive: 10.2%.
For `O=C(C[N+]12CCN(CC1)CC2)NCCc1ccc(Cl)cc1Cl` the value was inactive: -13.5%; for `Cc1ccccc1N1CCN(C2CCCN(C(=O)COc3ccccc3)C2)CC1` (stereo not given), inactive: -12.4%; for `O=C(Nc1c(F)cc(F)cc1F)c1cccn(Cc2ccccc2)c1=O`, inactive: -26.7%.
As for `Cc1ccc(C)c(OCC(=O)N2CCCN(C)CC2)c1`, the figure is inactive: 6.9%; as for `COc1cccc(CN2CCNCC2)c1`, inactive: 0.548%.
As for `COc1ccc(C(C)=O)cc1CC(C(=O)c1ccccc1)N(C)C` (stereo not given), the growth rescue (activation) is inactive: 6.27%.
Regarding `Cc1csc(=N)n1Cc1ccccc1`, the growth rescue (activation) is inactive: -4.7%.
Regarding `O=C1CCN(C(=O)CNC(=O)Cc2ccccc2)CC1`, the growth rescue (activation) is inactive: 5.02%.
Consider `CC1(C)C2([N+](=O)[O-])CN3CN(C2)CC1([N+](=O)[O-])C3`, for which the growth rescue (activation) was inactive: -2.73%.
As to `CCCCn1c(O)c(C=NCCN2CCCCC2)c(=O)[nH]c1=O`, the growth rescue (activation) is inactive: -7.58%.
As to `O=C(CN1C(=O)CN=C(c2ccccc2Cl)c2cc(Cl)ccc21)NCc1ccco1`, the growth rescue (activation) is inactive: -16.4%.
With `C[C@]12CCC3C(CC[C@H]4C[C@@H](O)CC[C@]34C)C1C[C@@H](N)[C@@H]2O` (stereo not given in full), the growth rescue (activation) was inactive: 23.6%.
As for `OC1(c2cccnc2)CC2CCC(C1)N2Cc1nnnn1Cc1ccccc1` (stereo not given), the figure is inactive: 15.4%; as for `CC(C)c1ccc(N2C(=O)NC(=O)/C(=C/C=C/c3ccco3)C2=O)cc1`, inactive: -0.388%.
Turning to `CC(C)CCNC(=O)CN1C(=O)CN=C(c2ccccc2)c2ccccc21`, the growth rescue (activation) was inactive: 29.6%.
For the molecule `Cc1nn(Cc2ccccc2)c(Cl)c1C(=O)OCC(=O)N1CCCC1`, the growth rescue (activation) was inactive: -5.14%.
Regarding `O=C1NC(=O)N(c2cccc(Br)c2)C(=O)/C1=C/c1ccsc1`, the growth rescue (activation) is inactive: 2.92%.
In the case of `O=[N+]([O-])c1ccc(NCc2ccc(Cl)cc2)c2ccncc12`, the growth rescue (activation) is inactive: 16.8%.
For the molecule `CCC(=NCCC(c1ccccc1)c1ccccc1)c1c(O)n(C)c(=O)n(C)c1=O`, the growth rescue (activation) was inactive: -15.8%.
For `COc1cc(/C=C2\C(=O)NC(=O)N(CCc3ccc(F)cc3)C2=O)ccc1O`, the growth rescue (activation) is inactive: -9.93%.
With `CCCOc1ccc(N2C(=O)CC(N3CC=C(c4ccccc4)CC3)C2=O)cc1` (stereo not given), the growth rescue (activation) was inactive: 29.1%.
On to `Cn1cc(C(=O)OCC(=O)NC2(C#N)CCCCC2)c2ccccc21`, for which the growth rescue (activation) was inactive: 10.7%.
For `CC1CCCC(C)N1/N=C/c1c[nH]c2ccc(Br)cc12` (stereo not given), the growth rescue (activation) is inactive: 3.25%.
In the case of `COc1ccc(C(=O)C2CCCN(C3CSCCSC3)C2)c(C)c1` (stereo not given), the growth rescue (activation) was inactive: 12.5%.
As to `Cn1c(O)c(/C=C2/C=CC=N2)c(=O)[nH]c1=O`, the growth rescue (activation) was inactive: -10.5%.
With `COc1ccc(OC)c(N2Cc3ccccc3C2=N)c1`, the growth rescue (activation) was inactive: -19%.
As for `Cc1ccc(/C=C2\C(=O)NC(=O)N(CC3CCCO3)C2=O)s1` (stereo not given), the growth rescue (activation) is inactive: -3.88%.
For `O=c1oc2ccccc2c(O)c1C(c1ccc([N+](=O)[O-])cc1)c1c(O)c2ccccc2oc1=O` the value was inactive: -16.1%; for `Cc1cc(O)c(CN2CC=C(c3ccccc3)CC2)cc1C(C)C`, inactive: -12.4%.
With `CCCSc1nc2ccccc2c(=O)n1-c1ccccc1OC`, the growth rescue (activation) is inactive: 29.8%.
As for `NC(Cc1ccc(F)cc1)c1csc(Nc2ncccn2)n1` (stereo not given), the figure is inactive: 18.2%.
On to `COC(=O)c1c(C)n(Cc2ccccc2)c2ccc(O)cc12`, for which the growth rescue (activation) was inactive: 10.1%.
On to `CN1C(=O)C(=Cc2ccc(N3CCOCC3)o2)C(=O)N(C)C1=O`, for which the growth rescue (activation) was inactive: 1.49%.
As to `Cc1cc(Cl)ccc1C(=O)C1CCCN(Cc2ccon2)C1` (stereo not given), the growth rescue (activation) was inactive: 9.27%.
Turning to `COc1ccc(C)cc1NC1=NCCCS1`, the growth rescue (activation) was inactive: 1.24%.
For `O=C1NC(=O)C(=Cc2cc([N+](=O)[O-])ccc2N2CCCCC2)C(=O)N1`, the growth rescue (activation) was inactive: 5.14%.
For `Cc1cc(C)c(-n2c(O)c(/C=N/NC(=O)c3ccncc3)c(=O)[nH]c2=O)c(C)c1`, the growth rescue (activation) was inactive: 8.09%.
On to `O=c1[nH]c2ccccc2c(=O)n1-c1ccc(Cl)c(Cl)c1`, for which the growth rescue (activation) was inactive: -4.43%.
For `Cc1nn(Cc2ccccc2)c(C)c1C(=O)O` the value was inactive: 13.5%.
For `CCOC(=O)c1c(/N=C/c2c(O)n(-c3cccc(C)c3)c(=O)[nH]c2=O)sc2c1CCCC2`, the growth rescue (activation) was inactive: 4.36%.
In the case of `CN1CCC(N(C)c2ccc(C(N)=O)cc2[N+](=O)[O-])CC1`, the growth rescue (activation) was inactive: 9.48%.
For `O=c1cccc2n1CC1CC2CN(c2nc(N3CCCCC3)nc(N3CCCCC3)n2)C1` (stereo not given) the value was inactive: 18.1%.
Regarding `Cc1c(OC(=O)N(C)C)ccc2c1O/C(=C\c1ccco1)C2=O`, the growth rescue (activation) was inactive: 6.52%.
With `COc1cc2c(cc1OC)CN(c1ccc([N+](=O)[O-])c(C(F)(F)F)c1)CC2`, the growth rescue (activation) was inactive: -2.22%.
With `C=Cn1ccnc1P(=S)(c1ccc(Cl)cc1)c1nccn1C=C`, the growth rescue (activation) was inactive: 8.37%.
Turning to `O=c1c2ccccc2nc(/C=C/c2ccc(O)cc2)n1-c1cccc(O)c1`, the growth rescue (activation) was inactive: 4.34%.
With `Cn1cccc1C1CCCN1CC(=O)Nc1ccc(C#N)c(Cl)c1` (stereo not given), the growth rescue (activation) is inactive: -0.083%.
Regarding `Cc1ccc(-n2c(O)c(/C=N/N3CCOCC3)c(=O)[nH]c2=S)cc1`, the growth rescue (activation) was inactive: -39%.
For `C[C@]12CC[C@@H](O)CC1=CCC1C2CC[C@@]2(C)C1C[C@@H](F)[C@@H]2O` (stereo not given in full) the value was inactive: 14.6%; for `CCOc1ccc(Cl)cc1CNCCc1ccccc1F`, inactive: -4.78%; for `CN1C(=O)C(=Cc2ccccc2OCCOc2ccc([N+](=O)[O-])cc2)C(=O)N(C)C1=O`, inactive: -17%.
In the case of `CC1(c2ccc(Cl)cc2Cl)OCC(Cn2cncn2)O1` (stereo not given), the growth rescue (activation) is inactive: 16.5%.
For `CNC(=S)N(C)CCc1cc2c(c(OC)c1C=C1C(=O)NC(=O)NC1=O)OCO2`, the growth rescue (activation) is inactive: 8.97%.
With `O=C(COC(=O)Cc1ccccc1)Nc1ccc(F)cc1`, the growth rescue (activation) was inactive: 21.6%.
As for `CCC(C)C12CN3CCN(CC(C)(C3)C1O)C2` (stereo not given), the figure is inactive: 16.7%; as for `COc1ccccc1NC(=O)c1cn(CCC#N)nc1-c1ccc(F)cc1`, inactive: -0.708%.
As for `CCCCn1c(O)c(C(C)=NCCc2ccccc2)c(=O)[nH]c1=O`, the figure is inactive: 26.2%; as for `COc1ccc(OCC(=O)N2CCN(C3CCC(c4ccccc4)CC3)CC2)cc1` (stereo not given), inactive: -16%.
Turning to `COc1ccccc1N1CCN(Cc2ccc(F)cc2)CC1`, the growth rescue (activation) is inactive: 0.401%.
On to `Cc1ccc(N2C(=O)NC(=O)C(CCc3ccncc3)(Cc3cccc(Cl)c3Cl)C2=O)cc1` (stereo not given), for which the growth rescue (activation) was inactive: 14.9%.
With `NC(Cc1ccc(F)cc1)c1csc(Nc2cnccn2)n1` (stereo not given), the growth rescue (activation) was inactive: 9.84%.
Regarding `CN1CCc2cc3c(c4c2C1Cc1ccccc1-4)OCO3` (stereo not given), the growth rescue (activation) was inactive: -10.3%.
